Variants at the background level are over-represented here.
B1: glmS ribozyme (parent)
chain: AUAAAAGCGCCAGAACUACAGAAAUGUAGUUGACGAGGAGGAGGUUUAUCGAAUUUUCGGCGGAUGCCUCCAAA

Experiments:
Conditions in all cases: with glucosamine-6-phosphate
glucosamine-6-phosphate [1] = variants of: B1; test: self-cleavage kobs at 40 uM GlcN6P; higher = faster cleavage; RNA array
In short: (§1)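 Barcoded ribozyme variants, transcribed in situ by E. coli RNA polymerase on sequenced MiSeq chips, were followed via a hybridised Cy3 probe at 37 °C. Glucosamine-6-phosphate ranged from 40 μM to 10 mM in HEPES/KCl/Mg(OAc)2 buffer. kobs came from decay fits to per-tile medians, and kcat and KM from weighted Michaelis–Menten fits.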

glucosamine-6-phosphate [2] = variants of: B1; test: self-cleavage kobs at 640 uM GlcN6P; higher = faster cleavage; RNA array
In short: as §1

glucosamine-6-phosphate [3] = variants of: B1; test: self-cleavage kobs at 2500 uM GlcN6P; higher = faster cleavage; RNA array
In short: as §1

glucosamine-6-phosphate [4] = variants of: B1; test: self-cleavage kobs at 10000 uM GlcN6P; higher = faster cleavage; RNA array
In short: as §1

glucosamine-6-phosphate [5] = variants of: B1; test: self-cleavage kobs at 160 uM GlcN6P; higher = faster cleavage; RNA array
In short: as §1

Row | Variant | self-cleavage kobs at 40 uM GlcN6P (glucosamine-6-phosphate [1]) [s⁻¹] | self-cleavage kobs at 640 uM GlcN6P (glucosamine-6-phosphate [2]) [s⁻¹] | self-cleavage kobs at 2500 uM GlcN6P (glucosamine-6-phosphate [3]) [s⁻¹] | self-cleavage kobs at 10000 uM GlcN6P (glucosamine-6-phosphate [4]) [s⁻¹] | self-cleavage kobs at 160 uM GlcN6P (glucosamine-6-phosphate [5]) [s⁻¹]
1 | AUAAAAACGCCAGAACUACAGAAAUGUAGUUGACGAGGAGGAGGUUUAUCGAAUUUUCGUCGGAUGCCUCCAAA [G7A G60U] | < 1e-05 | < 1e-05 | < 1e-05 | < 1e-05 | –
2 | AUAAAAACGCCAGAACUACAGAAAUGUAGUUGACGAGGAGGAUGUUUAUCGAAUUUUCGACGGAUGCCUCCAAA [G7A G43U G60A] | < 1e-05 | < 1e-05 | – | – | –
3 | AUAAAACCGCCAGGACUACAGAAAUGUAGUUGACGAGGAGGAGGUUUAUCGAAUUUUCGGCGGAUGCCUCCAAA [G7C A14G] | < 1e-05 | – | < 1e-05 | < 1e-05 | –
4 | AUAAAAACGCCAGAACUACAGAAAUGUAGUUGACGAGGAGGAGGCUUAUCGAAUUUUCGGCGGAUGCCUCUAAA [G7A U45C C71U] | < 1e-05 | < 1e-05 | – | – | –
5 | AUAAAAACGCCAGAACUACAGAAAUGUAGUUGACAAGGAGGAGGUUUAUCGAAUUUUCGGCGGAUGCCUCCAAA [G7A G35A] | < 1e-05 | < 1e-05 | < 1e-05 | < 1e-05 | < 1e-05
6 | AUAAAACCGCCUGAACUACAGAAAUGUAGUUGACGAGUACGAGGUUUAGCGAAUUGUCGGCGGAUGCCUCCAAA [G7C A12U G38U G40C U49G U56G] | < 1e-05 | – | – | – | –
7 | AUAAAAACGCCAGAACUACAGAAAUGUAGUUGACGAGGAAGAGGUUUAUCGAAUUUUCGGCAGAUGUCUCCAAA [G7A G40A G62A C67U] | < 1e-05 | < 1e-05 | < 1e-05 | < 1e-05 | –
8 | AUAAAAACCCCAGAACUACAGAAAUGUAGUUGACGAGGAGGAGGUUUAUCGAAUUUUCGGCGGAUGCCUCCAAA [G7A G9C] | < 1e-05 | < 1e-05 | < 1e-05 | < 1e-05 | < 1e-05
9 | AUAAAACCGCCAGAACUACAGAAAUGUAGUUGACGAGGAGGAGGUUUAUCGAAUUUUCGGCGGUUGCCUCCAAA [G7C A64U] | < 1e-05 | – | < 1e-05 | < 1e-05 | –
10 | AUAAAAACGCCAGAACUACAGAAAUGUAGUUGACGAGGAGGAGGUUGAUCGAAUUUUCGGCGGAUGCCUCCAAA [G7A U47G] | < 1e-05 | < 1e-05 | – | – | < 1e-05
11 | AUAAAAACGCCAGAACUACAGAAAUGUAGUUGACGAGGAGGAGGUUUAUCGUAUUUUCGGCGCAUGCCUCCAAA [G7A A52U G63C] | < 1e-05 | < 1e-05 | < 1e-05 | – | < 1e-05
12 | AUAAAAACGCCAGAACUACAGAAAUGUAGUUGAUGAGGAGGAGGUUUAUCGAAUUUUCGGCGGAUGCCUCCAAA [G7A C34U] | < 1e-05 | < 1e-05 | < 1e-05 | < 1e-05 | < 1e-05
13 | AUAAAACCGCCAGAACUACAGAAAUGUAGUUGACGAGGAGGCGGUUUAUCGAAUUUUCGGCGGAUGCCUCCAAA [G7C A42C] | < 1e-05 | – | – | – | –
14 | AUAAAAACGCCAGAACUACAGAAAUGUAGCUGACGAGGAGGAGGUUUAUCGAAUUUUCGGCGGAUGCCUCCAAA [G7A U30C] | < 1e-05 | < 1e-05 | < 1e-05 | < 1e-05 | –
15 | AUAAAAACGCCAGAACUACAGAAAUGUAGUUGACGAGCAAGAGGUUUAUCGAAUUUUCGGCGGAUGCCUCCAAA [G7A G38C G40A] | < 1e-05 | – | – | – | –
16 | AUAAAAACGCUAGAACUACAGAAAUGUAGAUGACGAGGAGGAGGUUUAUCGAAUUUUCGGCGGAUGCCUCCAAA [G7A C11U U30A] | < 1e-05 | – | – | – | –
17 | AUAAAAACGCCACAACUACAGAAAUGUAGUUGACGAGGAGGAGGUUUAUCGAAUUUUCGGCGGAUGCCUCCAAA [G7A G13C] | < 1e-05 | – | – | < 1e-05 | –
18 | AUAAAAACGCCAAAACUACAGAAAUGUAGUUGACGAGGAGGAGGUUUAUCGAAUUUUCGGCGGAUGCCUCCAAA [G7A G13A] | < 1e-05 | < 1e-05 | – | < 1e-05 | < 1e-05
19 | AUAAAAACGCCAGAACUACAGAAAUGUAGUUGACGAGGAGGAGGUUUAUCAAAUUUUCGGCGGAUGACUCCAAA [G7A G51A C67A] | < 1e-05 | – | – | < 1e-05 | –
20 | AUAAAACCGCCCGAACUACAGAAAUGUAGUUGACGAGGAGGAGGUUUAUCGAAUUUUCGGCGGAUGCCUCCAAA [G7C A12C] | < 1e-05 | – | < 1e-05 | < 1e-05 | < 1e-05
21 | AUAAAAACGCCAGAACUACAGAAAUGUAGUUGACGAGGAGGAGGUUUAUUGAAUUUUCGGCGGAUGCCUCCAAA [G7A C50U] | < 1e-05 | < 1e-05 | < 1e-05 | < 1e-05 | < 1e-05
22 | AUAAAACCGCCAGAACUACAGAAAUGUAGUUGACGAGGAGGUGGUAUAUCUAAUUUUCGGCGGAUGUCUUCAAA [G7C A42U U46A G51U C67U C70U] | < 1e-05 | – | – | < 1e-05 | –
23 | AUAAAAACGCCAGAACUACAGAAAUGUAGUUAACGAGGAGGAGGUUUAUCGAAUUUUCGGCGGAUGCCUCCAAA [G7A G32A] | < 1e-05 | < 1e-05 | < 1e-05 | – | –
24 | AUAAAAACGCCAUCUCUACAGAAAUGUAGUUGACAAGGAGGAGGUUUAUCGAAUCUUCGGCGGGUGCCUCAAAA [G7A G13U A14C A15U G35A U55C A64G C71A] | < 1e-05 | – | – | < 1e-05 | –
25 | AUAAAAACGCCAGAAUUACAGAAAUGUAGUUGACGAGGAGGAGGUUAAUCGAAUUUUCGGCGGAUGCCUCCAAA [G7A C16U U47A] | < 1e-05 | – | – | – | –
26 | AUAAAAACGGCAGAACUACAGAAAUGUAGUUGACGAGGAGGAGGUUUAUUGAAUUUUCGGCGGAUGCCUCCAAA [G7A C10G C50U] | < 1e-05 | – | – | – | –

From the supplement of paper PMC7125110
